The source of these data is article PMC12040169 (PLOS Biology, 2025).

This is one part of the list.

This test deals with T1, C. trachomatis L2/434/Bu expressing GFP (CTL2-GFP).
T1 construct: L2/434/Bu GFP intracellular growth in HeLa cells
The arrangement: species or system HeLa; C. trachomatis total inclusion area by high-content imaging, normalised to DMSO. The note with it: total inclusion area; 28.5 h, 10 µM; inhibitor. Put shortly: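 Host cell viability was gauged from Hoechst-stained nuclei counts, while chlamydial growth was taken from total inclusion area and inclusion number per well. Cells were fixed and imaged by high-content microscopy once bulk GFP and resorufin fluorescence had been measured.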
Consider `N#Cc1ccccc1CSc1ncn[nH]1` [CBK027835], for which the “% of control remaining” value was determined as 119.776.
The figure for `O=C(CCCSc1nc2sc3c(c2c(=O)[nH]1)CCCC3)NCCO` [CBK263336] is 107.87; for `Cc1cc(C)c(C)c(S(=O)(=O)NCCCC(=O)O)c1C` [CBK268898] it is 102.683.
Next, `CCN(Cc1nc(-c2ccccc2)no1)C(=O)c1ccoc1C` [CBK270229]: 112.837.
Next, `Cc1nnc(SCCCNC(=O)C2CC(=O)N(Cc3ccccn3)C2)s1` (centres unmarked) [CBK307529]: 65.0478; `O=C(N[C@H]1CO[C@H]2[C@@H]1OC[C@@H]2n1cc(CC2CCCCC2)nn1)C1CC1` [CBK289509]: 113.985.
As for `CSc1nn(C)c(=O)c2c3c(sc12)CCC3` [CBK019796], the “% of control remaining” value is listed as 67.6889.
As to `Cc1cc(Cl)c(S(=O)(=O)NCc2cccs2)cc1OCC(N)=O` [CBK266496], the “% of control remaining” value is 124.748.
The figure for `O=C(NC1CCCCC1)C1CCCN(C(=O)NCc2ccccn2)C1` (centres unmarked) [CBK305814] is 63.2309; for `O=C(O)CCn1c(C2CCCCC2)nc2ccccc21` [CBK111480] it is 89.2136; for `CCC(C)(C)Nc1cccnc1N(C)C1CCN(C(=O)c2cc3cc(N)ccc3[nH]2)CC1` [CBK016674] it is 85.8862.
As to `CN1C(=O)CC2(C1=O)C(=O)N(CCN1C(=O)c3ccccc3C1=O)c1ccc(F)cc12` (centres unmarked) [CBK075451], the “% of control remaining” value worked out at 103.427.
As to `CC(C)N1CCC(=NNC(=O)COc2ccc(Cl)cc2Cl)CC1` [CBK262614], the “% of control remaining” value is 109.961.
As for `CCNC(=S)NC1CC[C@@]2(C3=CC=CC4C=CC=CC34)CCN(C)[C@H]2C1` (some centres unmarked) [CBK003596C], the “% of control remaining” value is on record as 60.1425.
The figure for `Cc1cc2cc(F)ccc2n1CCCN1CCN(c2ccncc2)CC1` [CBK039119G] is 37.9352.
The figure for `Cc1ccc(Cl)c(OCc2nnc(SCC(=O)O)n2N)c1` [CBK268992] is 47.1989.
With `Cc1ccc(C2N(Cc3ccccc3)CCN2Cc2ccccc2)o1` [CBK260883], the “% of control remaining” value is 93.4442.
In the case of `CCC1CCCCN1C(=O)c1cccs1` (centres unmarked) [CBK074214], the “% of control remaining” value was 113.5.
The figure for `CC1OCN(c2ccc(C(C)(C)C)cc2)Cn2c1nc1ccccc12` (centres unmarked) [CBK018706] is 33.5149.
The figure for `O=C(NC[C@H]1C[C@@H]2CC[N@]1C[C@@H]2CN1CCN(c2ncccn2)CC1)c1ccco1` [CBK289115] is 107.825.
Regarding `O=C(NCCn1nc(-c2cccs2)ccc1=O)C1CCCC1` [CBK283840], the “% of control remaining” value worked out at 102.481.
Next, `O=C(Nc1ccc(N2CCNCC2)nc1)c1cnccn1` [CBK029436T]: 98.3521; `CCCc1n[nH]c(=S)n1CC(=O)Nc1cc(NC(=O)C2CC2)ccc1C` [CBK297740]: 94.0705; `O=C(/C=C/c1ccc2c(c1)OCO2)N1CCN(c2ncccn2)CC1` [CBK144501]: 103.786.
`O=C(c1ccco1)N1CCN(c2cc(-c3ccsc3)ncn2)CC1` [CBK037690]: the “% of control remaining” value amounted to 154.387.
Next, `CS(=O)(=O)N(CC(=O)Nc1ccc(S(=O)(=O)N2CCCCCC2)cc1)c1ccccc1F` [CBK266829]: 101.816; `Cc1ccccc1Cn1c(=O)sc2ccccc21` [CBK025408]: 57.3388.
`COc1ccc2[nH]c3c(c2c1)CCN1C(c2ccco2)N2CCC31CC2` (centres unmarked) [CBK284432]: the “% of control remaining” value turned out to be 95.0117.
Next, `CC(NC(=O)C1CC(=O)N(c2cccc(F)c2)C1)C1CC2CCC1C2` (centres unmarked) [CBK281664]: 84.3704; `Cn1nccc1CN1CCNC(=O)C1c1ccccc1C(F)(F)F` (centres unmarked) [CBK306422]: 74.5523.
Next, `Cc1nc([N+](=O)[O-])c(SCC(O)CN2CCCCC2)[nH]1` (centres unmarked) [CBK261727]: 96.1027.
Next, `Cc1cc(C)nc(SCCC(=O)O)n1` [CBK260975]: 101.557; `COC(=O)N1CCC(C(=O)NC(c2ccccc2)c2nc(OC)cc(OC)n2)CC1` (centres unmarked) [CBK059651]: 70.5481.
As to `CC(CN(C)C(=O)c1cocn1)Oc1ccc(Cl)c(Cl)c1` (centres unmarked) [CBK304285], the “% of control remaining” value came out at 136.254.
The figure for `Cc1cc(C)nc(SCC(=O)Nc2ccc(S(=O)(=O)NC3CCCCC3)cc2)n1` [CBK268299] is 112.03; for `O=C1c2ccccc2C(=O)N1Cc1nc2ccccc2c(=O)n1CCCN1CCOCC1` [CBK268463] it is 89.6135.
Next, `COCCN1C(=O)CC2(C1=O)C(=O)N(CC(=O)c1ccccc1)c1ccccc12` (centres unmarked) [CBK075875]: 91.1192; `O=C(Nc1ccc(Cl)cc1)Nc1ccc(OCC(O)CN2CCCCC2)cc1` (centres unmarked) [CBK086101]: 77.2559; `COc1cncc(-c2cc(N3CCN(C(=O)c4ccco4)CC3)ncn2)c1` [CBK091121]: 103.84.
Next, `C=C(C)Cn1c(SCC(C)C)nnc1-c1ccccc1OC` [CBK200071]: 107.45; `CC(=O)Nc1cccc(-c2cnc(N)c(N3CCC(C(=O)O)CC3)n2)c1` [CBK063657]: 119.869.
As for `Cc1cc(COc2nccnc2N2CCN(CC3CCCCC3)CC2)no1` [CBK084205], the “% of control remaining” value was 71.6488.
The figure for `COCCNC(=O)c1cc(-c2ccc(C)cc2)nc2c1cnn2C(C)C` [CBK305033] is 61.2263; for `O=C(c1ccco1)N1CCN(c2cc(-c3cc4ccccc4o3)ncn2)CC1` [CBK091114] it is 129.775; for `COC(=O)Nc1sc2c(c1C(=O)N1CCOCC1)CCC(C)C2` (centres unmarked) [CBK307413] it is 27.2239.
For `Cc1ccc(-c2cc(C(=O)NCc3ccc(F)cc3Cl)n[nH]2)cc1` [CBK288102], the “% of control remaining” value worked out at 90.4811.
The figure for `O=C(O)C1CCCN1S(=O)(=O)c1ccc(Cl)c(Cl)c1` (centres unmarked) [CBK217856] is 88.1111.
Regarding `CSc1nc(SCC(=O)N(c2ccccc2)c2ccccc2)c2c3c(sc2n1)CCC3` [CBK267715], the “% of control remaining” value is 114.875.
The figure for `CC(=O)N1CCc2cc(C(=O)CN3CCC(c4ccccc4)C3)ccc21` (centres unmarked) [CBK282931] is 97.6364.
Consider `COc1ccccc1CC(=O)NCCC(=O)N1CCN(c2ccc(F)cc2)CC1` [CBK298318], for which the “% of control remaining” value is recorded as 83.6853.
The figure for `Fc1ccccc1CN1CCN(Cc2ccccn2)CC1` [CBK265194G] is 86.2653; for `CCOC(=O)C1CCN(S(=O)(=O)c2cccs2)CC1` [CBK051137] it is 96.1036; for `Cc1csc(C(=O)N2CCCC(c3cc(O)cc(C)n3)C2)c1` (centres unmarked) [CBK283423] it is 74.9787.
The figure for `CCC(=O)Nc1ccc(C(=O)Nc2ccc(S(=O)(=O)N3CCCCC3)cc2)cc1` [CBK269549] is 87.3909; for `Nc1nc(N)nc(Cn2c(-c3nonc3N)nc3ccccc32)n1` [CBK263072] it is 94.5012.
Next, `CC(C)n1c(=O)n(CCN2CCCCC2)c2cccnc21` [CBK283932]: 89.6907; `N#CCCCN1CCC(Oc2nccnc2OCc2cc(Cl)cc(Cl)c2)CC1` [CBK153634]: 74.7187; `O=c1n(CCCNCc2ccc(Cl)cc2Cl)nc2n1CCCC2` [CBK305382]: 86.0001.
In the case of `COc1ccc(Oc2cncc(OC3CCN(CC(=O)Nc4c(C)cccc4C)C3)n2)cc1OC` (centres unmarked) [CBK084403], the “% of control remaining” value worked out at 100.338.
Next, `CCCn1ncc(CN2CCCC(c3cc4cccnc4[nH]3)C2)c1C` (centres unmarked) [CBK284957]: 95.8907; `CCNC(=S)NS(=O)(=O)c1ccc(C)cc1` [CBK288452]: 61.6009; `Cc1ccc(C(=O)N2CC(=O)N(CCO)C2)cc1` [CBK045864]: 73.0167.
`O=C(c1ccnc2ccccc12)N1CCc2ccccc21` [CBK200283]: the “% of control remaining” value is 89.8363.
Turning to `O=C(O)c1ccc(N2C(=O)CC(S/C(=N\c3ccccc3)Nc3ccccc3)C2=O)cc1` (centres unmarked) [CBK262191], the “% of control remaining” value is given as 71.3247.
As for `CCc1nc(-c2ccc(C)c(S(=O)(=O)N3CCN(c4ccccc4)CC3)c2)no1` [CBK294434], the “% of control remaining” value was determined as 115.17.
On to `CCc1ccc2oc(-c3ccc(NC(=O)COc4ccc(Cl)cc4Cl)cc3O)nc2c1` [CBK263424], for which the “% of control remaining” value is 104.66.
Next, `Cc1csc(Sc2nc3ccccc3nc2N2CCCC2)n1` [CBK093788]: 89.8302; `CC(C)Nc1nc(Cl)nc(Nc2ccc(I)cc2)n1` [CBK027685]: 86.0749; `CC(C)Oc1ncc(C(=O)N(CCC#N)Cc2ccco2)cc1Cl` [CBK304908]: 51.0588.
The figure for `COc1ccc(S(=O)(=O)N2CCCC(C(=O)NCc3ccc4c(c3)OCO4)C2)cc1Cl` (centres unmarked) [CBK268230] is 91.3009; for `COc1ccc(-c2ccc(C(=O)N(C)C)c(N3CCN(C(=O)c4ccco4)CC3)n2)cc1` [CBK106020] it is 86.7143; for `COC(=O)CSc1nnc(-c2cc(Cl)ccc2OC)[nH]1` [CBK270248] it is 112.278.
The figure for `O=C(CCN1C(=O)/C(=C\C=C\c2ccccc2)SC1=S)Nc1cccc(C(=O)O)c1` [CBK264798] is 107.787; for `O=[N+]([O-])c1ccc(O)c(/C=N/C(CO)(CO)CO)c1` [CBK261835] it is 97.6774.
Consider `COc1ccccc1N1CCN(CC(=O)NC2CC3CCC2C3)CC1` (centres unmarked) [CBK269162], for which the “% of control remaining” value came out at 118.43.
The figure for `CN(C)S(=O)(=O)c1ccc(C(=O)C2=C(O)C(=O)N(Cc3cccnc3)C2c2ccccc2)cc1` (centres unmarked) [CBK264667] is 83.4417; for `CC(=O)c1ccc(-c2nc(NC(=O)c3cccs3)cnc2-c2ccc(F)cc2)s1` [CBK037558] it is 96.4707.
The figure for `O=C(O)/C=C\C(=O)Nc1ccc(OCC(=O)O)cc1` [CBK264449] is 98.9402; for `O=C(Cc1cccc2ccccc12)NC(=S)Nc1cccc(C(=O)O)c1` [CBK267471] it is 103.543; for `O=C(COc1ccc(Cl)cc1Cl)Nc1cccc(NC(=O)c2ccccc2Cl)c1` [CBK264726] it is 101.851.
